# Assay results taken from the supplement of paper PMC12217912.
# This is one part of the list. The full chains were built here from the parent and the listed change. Values near 0.05 are background.
# B1: TEV protease; numbered along this chain (parent)
# chain: MGESLFKGPRDYNPISSSICHLTNESDGHTTSLYGIGFGPFIITNKHLFRRNNGTLVVQSLHGVFKVKDTTTLQQHLVDGRDMIIIRMPKDFPPFPQKLKFREPQREERICLVTTNFQTKSMSSMVSDTSCTFPSGDGIFWKHWIQTKDGQCGSPLVSTRDGFIVGIHSASNFTNTNNYFTSVPKNFMELLTNQEAQQWVSGWRLNADSVLWGGHKVFMVKPEEPFQPVKEATQL
# Variants of: B1
# Assay: raw area under fraction-flipped curve 0-4 h after induction (AUC4h, not background-subtracted), DNA-recorder readout of cleavage of the substrate (dimensionless); higher = more cleavage of the substrate by the protease variant
# Conditions: temperature: 34 °C; time window: 0-4 h after rhamnose induction
# Description: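 In vivo DNA recorder in E. coli TOP10(DE3) ΔrhaA at 34 °C. Each TEVp single-site mutant (parent TEVp 0) is paired with a single-site variant of the 7-mer TEVs (canonical ENLYFQ|S). The substrate sits between flexible linkers in a Bxb1-sfGFP-TEVs-SsrA fusion, so cleavage stabilises Bxb1 and speeds flipping of a recombination array, read by NGS. The value is the raw area under the fraction-flipped curve over 0-4 h after rhamnose induction (AUC4h), with ≥20 reads per time point. It is not background-subtracted; inactive controls average about 0.047.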
# 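Note: Bxb1 expression induced with 0.2% (w/v) L-rhamnose at OD600 near 0.5, cultures sampled hourly, flipped fraction per protease–substrate barcode pair counted by paired-end Illumina sequencing.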
Variant,area with substrate ENLCFQS,area with substrate ENLDFQS,area with substrate ENLEFQS,area with substrate ENLFFQS,area with substrate ENLHFQS,area with substrate ENLKFQS,area with substrate ENLPFQS,area with substrate ENLWFQS,area with substrate ENLMFQS,area with substrate ENLNFQS,area with substrate ENLRFQS,area with substrate ENLSFQS,area with substrate ENLIFQS,area with substrate ENLQFQS,area with substrate ENLTFQS,area with substrate ENLLFQS,area with substrate ENLVFQS,area with substrate ENLGFQS
E107F,0.097,0.0628,0.0537,0.0624,0.0612,0.059,0.0451,0.06,–,–,–,–,–,–,–,–,–,–
F180D,0.0461,0.0561,–,0.014,0.0578,0.0723,0.0533,0.0507,0.065,0.0599,0.0554,0.0863,–,–,–,–,–,–
N186K,0.0673,0.062,–,0.095,0.057,0.0766,0.0636,–,–,–,0.0814,–,0.059,0.0791,0.105,–,–,–
N186Q,0.0666,–,–,0.0701,–,0.0796,–,–,–,0.0691,–,0.0579,–,0.0331,–,0.0661,–,–
L77M,0.0754,0.0609,0.065,0.0941,0.0608,0.0648,0.0604,0.0548,–,0.0502,–,–,0.0498,–,–,0.056,0.0589,–
R50F,0.0805,0.0622,–,0.121,–,0.0975,0.0666,–,–,0.0716,0.0832,0.074,0.144,0.0677,–,0.0858,0.129,–
L61Q,0.0947,0.033,0.0906,–,0.0758,0.0758,0.039,0.0802,–,–,–,0.0578,0.0831,–,–,0.0871,–,0.0828
M122D,0.0795,0.0649,0.0683,0.0736,0.0655,0.0718,–,0.0625,–,0.0588,0.0688,0.0629,0.0843,–,–,0.0833,–,–
M122G,0.0712,0.0649,0.0583,0.114,–,–,0.0541,–,–,0.0568,0.0614,–,–,0.0681,–,–,–,–
W203L,0.0724,–,–,0.0802,–,–,–,–,–,0.0581,0.0675,0.0728,–,–,–,0.0557,–,–
R106L,0.0849,0.0672,0.0627,0.103,0.0773,0.0816,0.0601,–,–,0.0722,0.0577,–,–,–,–,0.0707,0.103,–
D161P,0.0543,–,0.041,–,0.0412,0.0534,–,–,–,–,–,–,–,–,–,–,–,–
T115V,0.0708,0.0584,0.0792,0.0879,–,0.11,0.0627,0.0843,0.0758,0.0618,–,–,0.0913,–,–,0.0681,–,–
C131R,0.0602,–,0.0759,–,–,0.0684,–,–,–,0.0416,–,–,–,–,–,–,–,–
D208G,0.028,0.0631,–,–,0.071,0.0869,0.0818,–,–,0.0614,–,0.0745,–,–,–,0.0328,0.0829,–
F65Y,0.0726,0.0586,0.0669,0.0891,0.0803,0.0768,0.073,0.0738,–,0.072,0.0682,0.0554,–,0.0977,0.0567,–,–,0.0642
V157M,0.0537,–,0.0778,0.0729,0.0527,0.0734,–,0.0497,–,0.066,–,–,0.0752,–,–,–,–,0.0732
V157I,0.0805,0.0578,0.07,0.0899,0.0717,–,0.0818,–,–,0.0824,0.0691,0.0676,0.0853,–,0.075,–,–,–

Variant,area with substrate ENLCFQS,area with substrate ENLDFQS,area with substrate ENLEFQS,area with substrate ENLFFQS,area with substrate ENLHFQS,area with substrate ENLKFQS,area with substrate ENLPFQS,area with substrate ENLWFQS,area with substrate ENLMFQS,area with substrate ENLNFQS,area with substrate ENLRFQS,area with substrate ENLSFQS,area with substrate ENLIFQS,area with substrate ENLQFQS,area with substrate ENLTFQS,area with substrate ENLLFQS,area with substrate ENLVFQS,area with substrate ENLGFQS
I85G,0.0523,0.0553,–,0.0498,0.0562,0.0567,0.0538,–,–,0.0567,0.0453,0.0583,0.0578,0.0459,0.0509,0.0365,–,–
I167N,0.048,0.0614,0.0536,0.0602,–,0.0622,0.0439,0.0579,0.0667,0.0653,0.0757,–,–,–,0.0874,0.054,–,–
V58Q,0.0546,0.0416,0.0645,0.0557,0.0519,–,0.0442,–,–,0.0601,0.0521,–,–,0.0662,–,–,–,–
T147D,0.0551,0.0744,0.0813,–,–,–,–,–,0.0763,0.0684,–,–,0.0517,–,–,–,–,–
L190S,0.0912,0.0702,0.0552,–,0.0336,0.0797,–,–,–,0.0613,–,0.0474,–,0.0662,–,0.0718,–,–
T159A,0.0985,–,–,0.114,0.0791,–,–,–,0.0936,0.0745,–,0.0583,–,–,–,–,–,–
S169G,0.0543,0.059,0.0743,0.0599,0.0559,0.071,0.0612,–,0.0579,0.0778,0.0527,0.0509,0.0629,0.0767,–,–,0.0473,0.064
H215N,0.0486,0.0668,–,0.0632,–,0.058,0.0624,–,–,0.0511,–,0.0946,–,0.0604,–,–,–,0.0739
K100M,0.0719,–,–,–,0.0691,–,0.0036,–,–,0.0645,–,–,0.0895,–,–,0.0814,0.0775,–
D137E,0.102,0.0533,0.0581,0.0877,0.08,0.0819,0.0602,–,0.0609,0.0674,0.0712,–,0.106,0.0681,–,–,0.0792,–
T44V,0.0621,0.0555,0.063,0.0612,–,0.067,0.0643,–,–,0.069,0.0617,0.062,0.0624,0.052,–,–,–,–
I110P,0.0694,0.0517,–,0.0542,0.0726,0.0609,–,–,–,0.0424,0.056,0.0592,0.0516,–,–,–,–,–
I145P,0.0476,–,–,0.0723,–,0.0653,0.0483,–,–,0.0648,–,–,–,–,–,–,–,–
I145W,0.0712,0.0638,0.0516,0.0525,0.0393,0.048,0.0259,–,–,0.0561,0.0589,0.0497,–,–,0.0755,–,0.0753,0.0682
T71M,0.0868,0.0592,0.0746,0.0654,–,0.0607,0.104,0.0694,–,–,0.0406,–,–,0.0292,–,–,–,–
H62C,0.0701,0.0642,–,0.0751,0.0619,0.0829,0.0488,–,–,0.0669,0.0792,0.0586,–,–,–,0.063,0.0877,–
F173R,0.0292,0.0668,–,–,0.0645,0.0627,–,0.0919,0.0707,–,–,0.0649,–,–,–,–,0.0588,–
